The data set deals with the molecule itself. Briefly: cryo-EM structure.

B1: dynein light chain Robl1 (natural protein)
chain: not shown
As to B1, the binding result is reported as “binds”.

The values are drawn from paper PMC5988349 (Nature, 2018).
